Here are results for eleven substances from article PMC9033276.

By UniProt entry, the sequences of proteins in these tests, tags left out. Where a name states a change or a piece, a line headed by the entry shows the natural chain unless it says otherwise. Chains listed by the source or under a name are the forms on record and can include a tag or linker. Residues count along the entry.
UniProt P03950: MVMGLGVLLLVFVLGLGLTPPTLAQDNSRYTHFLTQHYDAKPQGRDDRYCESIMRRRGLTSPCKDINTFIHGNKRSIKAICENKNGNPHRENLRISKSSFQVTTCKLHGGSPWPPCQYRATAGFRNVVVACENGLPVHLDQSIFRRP
angiogenin (wild-type ANG, pDBLeu-ANG): residues 25-147 of P03950
ANG C-terminal half, residues 63–123: residues 87-147 of P03950
ANG segment of residues 83–123: residues 107-147 of P03950
ANG segment of residues 93–123: residues 117-147 of P03950
ANG mutant, 101st residue arginine (R101) mutated to isoleucine (I) (P03950, form named): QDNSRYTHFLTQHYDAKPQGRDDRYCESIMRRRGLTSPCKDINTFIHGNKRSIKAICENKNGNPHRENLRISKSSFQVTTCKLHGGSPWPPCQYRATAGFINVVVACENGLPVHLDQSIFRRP
UniProt P35609: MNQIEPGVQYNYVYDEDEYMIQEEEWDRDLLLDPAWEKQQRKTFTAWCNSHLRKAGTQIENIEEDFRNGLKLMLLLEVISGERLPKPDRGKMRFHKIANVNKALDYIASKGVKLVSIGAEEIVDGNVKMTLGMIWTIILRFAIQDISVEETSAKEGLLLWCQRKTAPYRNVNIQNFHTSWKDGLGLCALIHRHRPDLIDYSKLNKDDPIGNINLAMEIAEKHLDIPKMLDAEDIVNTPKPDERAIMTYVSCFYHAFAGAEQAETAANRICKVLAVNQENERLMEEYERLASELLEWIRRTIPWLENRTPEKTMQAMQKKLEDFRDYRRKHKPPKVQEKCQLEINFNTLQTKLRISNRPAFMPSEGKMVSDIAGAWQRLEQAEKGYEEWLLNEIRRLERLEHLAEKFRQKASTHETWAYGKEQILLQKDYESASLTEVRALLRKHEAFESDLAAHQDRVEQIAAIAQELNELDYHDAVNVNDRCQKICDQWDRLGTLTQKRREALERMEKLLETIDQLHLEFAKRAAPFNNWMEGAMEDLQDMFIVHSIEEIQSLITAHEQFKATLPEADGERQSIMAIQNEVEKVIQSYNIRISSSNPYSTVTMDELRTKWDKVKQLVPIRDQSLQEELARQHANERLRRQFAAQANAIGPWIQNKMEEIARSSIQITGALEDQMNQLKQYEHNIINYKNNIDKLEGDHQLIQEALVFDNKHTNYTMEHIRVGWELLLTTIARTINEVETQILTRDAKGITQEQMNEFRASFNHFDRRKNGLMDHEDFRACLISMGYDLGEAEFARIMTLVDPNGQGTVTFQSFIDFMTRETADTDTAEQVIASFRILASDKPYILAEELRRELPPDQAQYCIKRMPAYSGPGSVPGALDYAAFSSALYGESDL

Results are given in words; binding and its absence hold for the method and conditions named. Some entries that bind do so weakly or less than the wild type.

Test in all cases: two-hybrid; ProQuest Two-Hybrid System (Gibco), MaV203 yeast; ANG or its segments/mutants in pDBLeu (bait) co-transfected with ACTN2 or its segments in pPC86; X-gal assay of lacZ reporter, graded against control strains A-E
Assay [1] concerns the target angiogenin (wild-type ANG, pDBLeu-ANG) (human) (UniProt P03950).
Assay [2] addresses ANG segment of residues 93–123 (human) (UniProt P03950).
Assay [3] concerns the target ANG mutant, 101st residue arginine (R101) mutated to isoleucine (I) (human) (UniProt P03950).
The target in assay [4] is ANG C-terminal half, residues 63–123 (human) (UniProt P03950).
The target of assay [5] is ANG segment of residues 83–123 (human) (UniProt P03950).

Consider “ACTN2-375–739 (from UniProt P35609 375-739) (domain or fragment)”, for which the binding entry in assay [1] is listed as “binds”.
As to “ACTN2-375–894 (from UniProt P35609 375-894) (domain or fragment)”, the binding result in assay [1] is on record as “binds”.
On the same count and under the same terms, next, “ACTN2-383–620 (from UniProt P35609 383-620) (domain or fragment)”: “no binding”; “ACTN2-383–632 (two-hybrid construct) (from UniProt P35609 383-632) (domain or fragment)”: “binds”.
Regarding “ACTN2-391–632 (from UniProt P35609 391-632) (domain or fragment)”, the binding result in assay [1] was “no binding”.
“ACTN2-398–632 (from UniProt P35609 398-632) (domain or fragment)”: the binding result in assay [1] is recorded as “no binding”.
As to “ACTN2-398–655 (from UniProt P35609 398-655) (domain or fragment)”, the binding result in assay [1] is given as “no binding”.
In the case of “ACTN2-398–739 (from UniProt P35609 398-739) (domain or fragment)”, the binding entry in assay [1] is listed as “no binding”.
Still for that read-out and setting: next, “ACTN2-404–655 (from UniProt P35609 404-655) (domain or fragment)”: “no binding”.
As for “ACTN2-404–739 (from UniProt P35609 404-739) (domain or fragment)”, the binding entry in assay [1] is reported as “no binding”.
Turning to “alpha-actinin 2 (pPC86-ACTN2) (from UniProt P35609 1-894)”, the binding result in assay [2] is “no binding”; in assay [3] it was “no binding”; in assay [4], “binds”; in assay [5] it was “binds”.
